Data taken from PMC10868759.
Results are given in words; binding and its absence hold for the method and conditions named. In cells and extracts the contact can be indirect. Where a sequence is shown, tags or fusion partners need not be part of it.

Key:
[1] = biological target: T1, CESA1, N-terminal YN or YC fusion (BiFC) (Arabidopsis thaliana) (UniProt O48946); assay: split reporter; BiFC: N-terminal YN and YC fusions co-expressed in epidermal cells of N. benthamiana leaves, observed 3 days after infiltration by spinning-disk microscopy; CFP-N7 as transformation control
T1 sequence: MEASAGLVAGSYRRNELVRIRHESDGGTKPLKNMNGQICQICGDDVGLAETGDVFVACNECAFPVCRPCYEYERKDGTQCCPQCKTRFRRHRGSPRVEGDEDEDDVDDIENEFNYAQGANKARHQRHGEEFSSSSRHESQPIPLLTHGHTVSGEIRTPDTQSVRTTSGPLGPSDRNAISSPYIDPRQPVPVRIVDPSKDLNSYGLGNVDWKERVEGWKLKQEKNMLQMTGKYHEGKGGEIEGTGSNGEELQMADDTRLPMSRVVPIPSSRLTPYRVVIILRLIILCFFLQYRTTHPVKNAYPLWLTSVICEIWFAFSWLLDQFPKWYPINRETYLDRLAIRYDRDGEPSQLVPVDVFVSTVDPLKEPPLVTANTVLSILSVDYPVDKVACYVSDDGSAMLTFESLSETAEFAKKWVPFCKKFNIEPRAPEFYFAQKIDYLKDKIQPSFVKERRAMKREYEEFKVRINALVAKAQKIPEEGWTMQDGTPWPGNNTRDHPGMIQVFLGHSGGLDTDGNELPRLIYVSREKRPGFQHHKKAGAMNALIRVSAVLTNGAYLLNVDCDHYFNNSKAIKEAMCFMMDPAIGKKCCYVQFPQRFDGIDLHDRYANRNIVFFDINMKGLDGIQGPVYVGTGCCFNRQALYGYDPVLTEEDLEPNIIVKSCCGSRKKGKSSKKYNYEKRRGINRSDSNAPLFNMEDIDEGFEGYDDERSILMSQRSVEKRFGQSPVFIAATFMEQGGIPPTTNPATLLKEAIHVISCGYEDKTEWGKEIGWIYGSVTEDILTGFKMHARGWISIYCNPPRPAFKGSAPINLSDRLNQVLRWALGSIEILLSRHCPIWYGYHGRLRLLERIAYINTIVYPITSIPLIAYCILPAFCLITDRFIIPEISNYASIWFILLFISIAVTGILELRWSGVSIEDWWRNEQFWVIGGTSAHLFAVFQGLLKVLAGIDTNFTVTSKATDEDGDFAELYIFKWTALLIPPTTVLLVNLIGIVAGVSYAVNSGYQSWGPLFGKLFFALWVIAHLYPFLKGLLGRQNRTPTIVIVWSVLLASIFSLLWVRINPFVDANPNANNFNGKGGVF

[2] = biological target: T2, CESA6, N-terminal YN or YC fusion (BiFC) (Arabidopsis thaliana) (UniProt Q94JQ6); assay: as above
T2 sequence: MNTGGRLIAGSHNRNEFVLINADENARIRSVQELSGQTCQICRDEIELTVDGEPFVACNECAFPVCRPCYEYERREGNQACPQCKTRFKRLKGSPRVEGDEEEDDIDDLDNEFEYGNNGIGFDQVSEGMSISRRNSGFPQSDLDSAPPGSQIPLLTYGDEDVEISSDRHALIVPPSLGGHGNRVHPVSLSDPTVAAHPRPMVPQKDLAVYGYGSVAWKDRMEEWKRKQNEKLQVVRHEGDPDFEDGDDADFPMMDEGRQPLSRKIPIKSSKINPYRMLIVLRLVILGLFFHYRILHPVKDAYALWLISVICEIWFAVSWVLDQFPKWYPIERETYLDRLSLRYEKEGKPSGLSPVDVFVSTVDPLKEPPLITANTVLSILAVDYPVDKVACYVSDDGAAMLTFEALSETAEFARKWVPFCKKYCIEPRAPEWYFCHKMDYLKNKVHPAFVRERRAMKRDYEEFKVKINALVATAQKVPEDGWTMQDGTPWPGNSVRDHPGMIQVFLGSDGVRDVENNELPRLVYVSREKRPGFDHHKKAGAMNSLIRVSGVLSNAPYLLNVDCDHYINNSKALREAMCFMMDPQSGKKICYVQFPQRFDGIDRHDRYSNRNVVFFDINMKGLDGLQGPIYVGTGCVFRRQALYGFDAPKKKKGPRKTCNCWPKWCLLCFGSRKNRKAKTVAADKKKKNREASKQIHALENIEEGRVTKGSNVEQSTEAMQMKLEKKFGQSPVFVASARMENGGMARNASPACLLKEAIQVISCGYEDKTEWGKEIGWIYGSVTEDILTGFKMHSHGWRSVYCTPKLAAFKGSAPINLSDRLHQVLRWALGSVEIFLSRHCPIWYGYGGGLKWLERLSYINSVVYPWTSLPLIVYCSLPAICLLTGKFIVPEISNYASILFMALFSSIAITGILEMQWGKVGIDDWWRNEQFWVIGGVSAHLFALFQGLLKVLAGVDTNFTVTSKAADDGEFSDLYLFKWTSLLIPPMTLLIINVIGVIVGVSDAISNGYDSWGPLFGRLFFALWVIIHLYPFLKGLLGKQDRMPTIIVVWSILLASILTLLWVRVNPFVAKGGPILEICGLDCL

binding [1]: no binding
binding [2]: no binding
B1: MUR3, N-terminal YN or YC fusion (BiFC) (protein, UniProt Q7XJ98 1-619)
chain: MFPRVSMRRRSAEVSPTEPMEKGNGKNQTNRICLLVALSLFFWALLLYFHFVVLGTSNIDKQLQLQPSYAQSQPSSVSLRVDKFPIEPHAAPSKPPPKEPLVTIDKPILPPAPVANSSSTFKPPRIVESGKKQEFSFIRALKTVDNKSDPCGGKYIYVHNLPSKFNEDMLRDCKKLSLWTNMCKFTTNAGLGPPLENVEGVFSDEGWYATNQFAVDVIFSNRMKQYKCLTNDSSLAAAIFVPFYAGFDIARYLWGYNISRRDAASLELVDWLMKRPEWDIMRGKDHFLVAGRITWDFRRLSEEETDWGNKLLFLPAAKNMSMLVVESSPWNANDFGIPYPTYFHPAKDSEVFEWQDRMRNLERKWLFSFAGAPRPDNPKSIRGQIIDQCRNSNVGKLLECDFGESKCHAPSSIMQMFQSSLFCLQPQGDSYTRRSAFDSMLAGCIPVFFHPGSAYTQYTWHLPKNYTTYSVFIPEDDVRKRNISIEERLLQIPAKQVKIMRENVINLIPRLIYADPRSELETQKDAFDVSVQAVIDKVTRLRKNMIEGRTEYDYFVEENSWKYALLEEGQREAGGHVWDPFFSKPKPGEDGSSDGNGGTTISADAAKNSWKSEQRDKTQ
